The list shows a part of the results. Most values come without repeats; read them as rough.
Legend:
Assay in all cases: cell count relative to DMSO control; melanoma cells; higher = more viable cells
Settings in all cases: library dose: standard library concentration; 72 h
IPC-298 = tested on: IPC-298
IST-MEL1 = tested on: IST-MEL1
LOXIMVI = tested on: LOXIMVI
MEL-HO = tested on: MEL-HO
MeWo = tested on: MeWo
RVH-421 = tested on: RVH-421
SkMel2 = tested on: SkMel2
SkMel30 = tested on: SkMel30
SkMel5 = tested on: SkMel5
UACC257 = tested on: UACC257
UACC62 = tested on: UACC62
WM115 = tested on: WM115
WM1716 = tested on: WM1716
WM1745 = tested on: WM1745
WM3526 = tested on: WM3526
G361 = tested on: G361
RPMI7951 = tested on: RPMI7951
SkMel28 = tested on: SkMel28
LB2518-MEL = tested on: LB2518-MEL
MZ2-MEL = tested on: MZ2-MEL
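Also: cells treated in 1,536-well plates, then fixed and DAPI-stained, with nuclei counted from automated high-throughput microscope images.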

Row | SMILES | cell count (IPC-298) [%] | cell count (IST-MEL1) [%] | cell count (LOXIMVI) [%] | cell count (MEL-HO) [%] | cell count (MeWo) [%] | cell count (RVH-421) [%] | cell count (SkMel2) [%] | cell count (SkMel30) [%] | cell count (SkMel5) [%] | cell count (UACC257) [%] | cell count (UACC62) [%] | cell count (WM115) [%] | cell count (WM1716) [%] | cell count (WM1745) [%] | cell count (WM3526) [%] | cell count (G361) [%] | cell count (RPMI7951) [%] | cell count (SkMel28) [%] | cell count (LB2518-MEL) [%] | cell count (MZ2-MEL) [%]
1 | CCCCCCCCc1ccc(CCC(N)(CO)CO)cc1 [fingolimod] + CC(C)(C)c1cnc(CSc2cnc(NC(=O)C3CCNCC3)s2)o1 [SNS-032] (first compound 10 µM, partner dose 0.05 µM) | 54.6 | 3.46 | 4.45 | 0.866 | 10.9 | 1.6 | 0.483 | 9.73 | 53.5 | 61.9 | 10.6 | 13.2 | 18.2 | 1.41 | 21.9 | – | – | – | – | –
2 | CCCCCCCCc1ccc(CCC(N)(CO)CO)cc1 [fingolimod] + O=C(CCCCCCC(=O)Nc1ccccc1)NO [vorinostat] (first compound 10 µM, partner dose 0.4 µM) | 42.7 | 5.03 | 4.03 | 1.85 | 15.5 | 6.04 | 0.397 | 16.6 | 50.5 | 56.2 | 16.3 | 20.2 | 37.2 | 2.61 | 19 | 0.12 | 1.21 | 0.268 | – | –
3 | COc1cc2c(Oc3ccc4[nH]c(C)cc4c3F)ncnc2cc1OCCCN1CCCC1 [cediranib] + c1cc(-c2cnn3cc(-c4ccc(OCCN5CCCCC5)cc4)cnc23)ccn1 [Dorsomorphin] (first compound 2 µM, partner dose 2 µM) | 88.9 | 96.2 | 85.4 | 96 | 85.3 | 80.4 | – | 86.8 | 66.4 | 91 | 63.3 | 77 | 82.1 | 56.3 | 71 | 62.1 | 82.1 | 66 | – | –
4 | CCCCCCCCc1ccc(CCC(N)(CO)CO)cc1 [fingolimod] + O=c1cc(-c2cccc3c2Sc2ccccc2S3)oc(N2CCOCC2)c1 [KU55933] (first compound 10 µM, partner dose 5 µM) | 39.2 | 9.52 | 7.3 | 4.51 | 6.21 | 9.57 | – | 11.6 | 28.5 | 50.9 | 9.96 | 12.9 | 13.2 | – | 14.6 | 0.454 | 7.86 | 2.62 | – | –
5 | CCc1ccc(CCOc2ccc(CC3SC(=O)NC3=O)cc2)nc1 (centres undefined) [pioglitazone] + O=C(O)C(=O)Nc1sc2c(c1C(=O)O)CCNC2 [TCS401] (first compound 10 µM, partner dose 8.33333 µM) | 87.4 | 99.9 | 86.5 | 88.7 | 86 | 88.3 | 95.5 | 116 | 60.7 | 87.4 | 137 | 74.8 | 112 | 69 | 103 | 96.2 | 85.5 | 79.2 | – | –
6 | NC(=O)c1ccc(N(C(N)=O)c2c(F)cccc2F)nc1-c1ccc(F)cc1F + CC(C)CCN1c2nc(Nc3cc(F)c(O)c(F)c3)ncc2N(C)C(=O)C1C [BID1870] (first compound 2 µM, partner dose 1 µM) | 81 | 79.5 | 68.3 | 76.3 | 75 | 78.9 | – | 104 | 72.8 | 91.1 | 78.7 | 81.8 | 105 | – | 70.4 | 71.9 | 70.8 | 72.8 | – | –
7 | CCCCCCCCc1ccc(CCC(N)(CO)CO)cc1 [fingolimod] + COc1ccc(COc2ccc(Cc3cnc(N)nc3N)cc2OC)cc1 [GW2580] (first compound 10 µM, partner dose 5 µM) | 89.5 | 17.5 | 71.7 | 4.61 | 27.7 | 14.9 | 6 | 12 | 50.4 | 67.6 | 34.9 | 22.4 | 43 | – | 31.1 | 0.744 | 9.6 | 47 | – | –
8 | CCCCCCCCc1ccc(CCC(N)(CO)CO)cc1 [fingolimod] + Cn1c(=O)n(-c2ccc(C(C)(C)C#N)cc2)c2c3cc(-c4cnc5ccccc5c4)ccc3ncc21 [NVP-BEZ235] (first compound 10 µM, partner dose 0.02 µM) | 39.8 | 3.5 | 35.9 | 0.418 | 30.4 | 0.429 | 0.0826 | 12.9 | 60.1 | 69.6 | 11.6 | 11.5 | 37.4 | 4.33 | 26.2 | 0.405 | 0.6 | – | 0.177 | 0.534
9 | CCCCCCCCc1ccc(CCC(N)(CO)CO)cc1 [fingolimod] + Nc1ncn([C@H]2C[C@H](O)[C@@H](CO)O2)c(=O)n1 [decitabine] (first compound 10 µM, partner dose 0.5 µM) | 32 | 8.15 | 19.4 | 2.53 | 42.4 | 11.8 | 0.107 | 17.7 | 62.3 | 63.1 | 20.9 | 15 | 38 | 6.5 | 35.3 | 1.08 | 1.85 | – | 0.187 | 1.07
10 | CCCCCCCCc1ccc(CCC(N)(CO)CO)cc1 [fingolimod] + CCc1ccc(CCOc2ccc(CC3SC(=O)NC3=O)cc2)nc1 [pioglitazone] (first compound 10 µM, partner dose 10 µM) | 29.5 | 10.1 | 49.6 | 9.01 | 48.5 | 8.78 | 0.659 | 6.58 | 57.2 | 75.9 | 13.5 | 12.8 | 15.7 | – | 11.5 | 0.406 | 8.61 | 0.602 | 0.192 | 4.49

From the supplement of paper PMC4604168 (melanoma cell lines)
